In all, about 310,000 compounds went through this assay and about 14,000 (4.5%) showed an effect of 50% or more. Effects have a minus sign here. This is one part of the list.
Biological target: human ether-à-go-go-related gene (hERG) potassium channel (human, UniProt Q12809)
Assay: primary screen, population patch clamp on CHO cells stably expressing hERG
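Further: peak tail current of the secondary pulse compared with the same well before compound.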

Sequence of human ether-à-go-go-related gene (hERG) potassium channel (Q12809 whole entry, looked up): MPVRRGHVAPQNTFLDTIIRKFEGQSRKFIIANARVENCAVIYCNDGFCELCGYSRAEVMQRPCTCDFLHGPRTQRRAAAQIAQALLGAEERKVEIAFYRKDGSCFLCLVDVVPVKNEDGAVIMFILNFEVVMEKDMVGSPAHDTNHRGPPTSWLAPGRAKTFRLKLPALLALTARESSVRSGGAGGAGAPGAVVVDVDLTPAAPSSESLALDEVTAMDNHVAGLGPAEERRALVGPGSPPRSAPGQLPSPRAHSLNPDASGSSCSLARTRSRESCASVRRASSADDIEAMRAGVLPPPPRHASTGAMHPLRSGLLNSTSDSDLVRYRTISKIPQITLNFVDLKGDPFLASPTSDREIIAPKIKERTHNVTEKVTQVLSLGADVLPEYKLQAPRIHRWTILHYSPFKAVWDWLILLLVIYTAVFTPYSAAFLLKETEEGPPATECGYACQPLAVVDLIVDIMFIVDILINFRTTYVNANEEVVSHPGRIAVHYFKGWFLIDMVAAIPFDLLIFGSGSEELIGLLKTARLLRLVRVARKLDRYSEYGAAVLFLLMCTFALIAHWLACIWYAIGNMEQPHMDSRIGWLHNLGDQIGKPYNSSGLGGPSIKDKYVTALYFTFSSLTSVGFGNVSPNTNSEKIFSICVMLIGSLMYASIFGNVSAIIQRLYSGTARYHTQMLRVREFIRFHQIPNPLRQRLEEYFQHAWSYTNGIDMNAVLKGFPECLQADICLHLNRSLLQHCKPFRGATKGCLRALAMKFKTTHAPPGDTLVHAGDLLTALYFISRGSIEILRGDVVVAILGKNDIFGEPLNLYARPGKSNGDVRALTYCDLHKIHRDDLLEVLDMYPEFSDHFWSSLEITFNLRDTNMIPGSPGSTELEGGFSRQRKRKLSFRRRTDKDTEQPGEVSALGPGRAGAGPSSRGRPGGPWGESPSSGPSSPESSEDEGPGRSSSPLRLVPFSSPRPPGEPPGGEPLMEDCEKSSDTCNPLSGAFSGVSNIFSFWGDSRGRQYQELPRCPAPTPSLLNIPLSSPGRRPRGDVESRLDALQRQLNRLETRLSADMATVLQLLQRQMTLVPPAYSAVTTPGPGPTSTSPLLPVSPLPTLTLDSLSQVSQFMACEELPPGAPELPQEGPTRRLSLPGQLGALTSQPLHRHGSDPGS

SMILES | hERG current change (%, negative = inhibition) at 10uM [%]
CC1CN(C(=O)COC(=O)c2ccc(C#N)cc2)CC(C)O1 (centres unmarked) | 5.25
CC(C)(C)CC(C)(C)NC(=O)/C=C/C(=O)O | -0.363
O=C(O)C1C2CCC(O2)C1C(=O)NC1CCCCC1 (centres unmarked) | 2.69
Cc1ccc(N2C(=O)C3NN=C(C(=O)OCc4ccccc4)C3C2=O)c(C)c1 (centres unmarked) | -2.8
COc1ccc(OCC(=O)OCC(=O)NCc2ccc(F)cc2)cc1 | 9.98
O=C(Cc1ccc(Cl)cc1)NNC(=O)Nc1cccc2ccccc12 | 16.1
Cc1cc(NCCCn2ccnc2)n2c(nc3ccccc32)c1C#N | 1.93
N=c1oc2cc(O)ccc2cc1C(=O)Nc1ccc(Br)cc1 | 1.92
COc1ccc(OC)c(NC(=O)CCN2C(=O)c3cccc([N+](=O)[O-])c3C2=O)c1 | 10.5
OCCN(CCCn1c(-c2ccncc2)nc2ccccc21)c1nc(CN2CCCCC2)cs1 | 23.4
O=C(Cc1ccc([N+](=O)[O-])cc1)N1CCN(c2ccc([N+](=O)[O-])cc2)CC1 | -73.7
CCCc1cc(C(=O)N2CCN(c3ccc(C(F)(F)F)cn3)CC2)sc1C | -32.9
N#CCCN1CCN(S(=O)(=O)c2ccc(S(=O)(=O)NC3CC3)cc2)CC1 | -1.76
Cc1ccc(NC(=O)CN2CCCC2)cc1Br.Cl | -11.9
Cc1c(NC(=O)c2ccc(F)cc2)c(=O)n(-c2ccccc2)n1C | 11.2
Cc1cc(OCCOCCN(C)CCO)cc(C)c1Cl | -40.9
Cc1cccc(NC(=O)c2ccc(C3SCC(=O)N3CCc3ccccc3)cc2)c1C (centres unmarked) | 5.54
Cc1ccc(C(=O)Nc2sc(C(=O)N(C)C)c(C)c2C#N)cc1 | 7.56
Cc1ccc(N2CCN(C(=S)Nc3ccccc3C)CC2)cc1 | 16.4

SMILES | hERG current change (%, negative = inhibition) at 10uM [%]
C#CCN(C(=O)CC1C(=O)NCCN1C/C=C/c1ccccc1)C1CCCCC1 (centres unmarked) | 13.4
COc1ccc(Nc2nc(-c3c[nH]c4ccccc34)cs2)cc1 | 16.5
CC(C)CCN1C(=O)c2ccc(C(=O)Nc3ccc(O)cc3C(=O)O)cc2C1=O | 12.4
O=C(Cc1ccc(-n2c(=O)[nH]c3ccccc3c2=O)cc1)N1CCN(c2cccc(Cl)c2)CC1 | -20.4
CN1CCN(C(=O)c2c(O)c3cccc4c3n(c2=O)CC4)CC1.Cl | 19.5
CCCCn1c(N)c(N(CCOC)C(=O)c2nn(CC)c(=O)c3ccccc23)c(=O)[nH]c1=O | 6.82
Cc1cc(N/N=C\c2ccc(Br)cc2)nc(-n2nc(C)cc2C)n1 | 19.1
COc1ccc(Cl)cc1N(C(C)C(=O)NC1CCCC1)S(C)(=O)=O (centres unmarked) | 7
CC1(C)CC(=O)C=C(NCC(O)c2ccccc2)C1 (centres unmarked) | 15.3
C=CCNC(=O)CN1CCN(C(c2ccccc2)c2ccccc2)CC1.O=C(O)C(=O)O | -5.05
Cc1ccc(-n2nc3cc(C)c(N)cc3n2)cc1 | 7.88
C=CCSC(=S)NC1CCS(=O)(=O)C1 (centres unmarked) | 6.98
COc1ccc(S(=O)(=O)NCc2ccncc2)cc1NC(=O)c1ccccc1F | 18.7
Cn1c(SCC(=O)Nc2ccc3c(c2)OCCO3)nnc1-c1ccncc1 | -7.75
COc1ccc(-c2cc(C(=O)NCc3cccnc3)no2)cc1OC | -0.608
Cc1cc(C)c(C#N)c(OCc2ccc(Cl)nc2)n1 | -8.51
CC(C)Cc1nc(C(N)=O)c2[nH]c(=O)n(-c3ccc(F)cc3)c2n1 | 6.62
Cc1nn(-c2ccccc2)nc1C(=O)Nc1ccc2[nH]ncc2c1 | 6.02
Cc1ccc(S(=O)(=O)NCC2COc3ccccc3O2)cc1 (centres unmarked) | -5.09

SMILES | hERG current change (%, negative = inhibition) at 10uM [%]
CCC1(c2ccc(F)cc2)NC(=O)N(CC(=O)Nc2ccc(-c3nc4ccc(C)cc4s3)cc2)C1=O (centres unmarked) | 2.11
CCN(CC)c1ccc(/C=C(/C#N)c2nc3ccccc3[nH]2)c(OC(C)C)c1 | -2.56
COc1ccc(CCNC(=O)C2CCN(S(=O)(=O)N3CCC4(CC3)OCCO4)CC2)cc1OC | 1.93
CC(=O)c1c(C)[nH]c(C(=O)COC(=O)CCSc2ccccc2)c1C | 23
Cc1cccc(Nc2nc3ccccc3s2)c1C | -0.166
Cc1cc(NS(C)(=O)=O)c(=O)n(Cc2c(F)cccc2Cl)c1 | 8.86
C#CCCOC(=O)N1C2=NC(C(=O)OC)=C(C(=O)OC)[C@@H]3Nc4ccccc4[C@]23C[C@H]1C(=O)OC | 1.33
COC(=O)c1ccc(NC(C(=O)OC)C(C)C)c([N+](=O)[O-])c1 (centres unmarked) | -6.89
CC(=O)C1=C(C)OC(N)=C(C#N)C1c1cccnc1 (centres unmarked) | -12.2
O=C(COC(=O)c1cc(=O)[nH]c2ccccc12)NC1CCCC1 | -11.8
Cn1c(=O)oc2cc(S(=O)(=O)Nc3cccc4c3CCCC4)ccc21 | -4.53
COc1ccc(S(=O)(=O)Nc2c(C)c(C)cc3c2ncn3C)cc1 | 10.8
Cc1ccc(C)c(CN2C(=O)CSc3ccc(C(=O)NCCN4CCOCC4)cc32)c1 | 14.6
O=S(=O)(NCCC1=CCCCC1)c1ccc(OC(F)(F)F)cc1 | -25.3
CCC(C)Sc1nnc(NC(=O)C2CCN(C(=O)c3ccco3)CC2)s1 (centres unmarked) | -57.2
CCc1ccc(N2CC(C(=O)Nc3ccc(C)c(S(=O)(=O)N4CCOCC4)c3)CC2=O)cc1 (centres unmarked) | -34.6
O=C(N[C@@H](Cc1ccccc1)C(=O)Nc1ccc(F)cc1)C1CCNCC1 | 12.5
O=C(c1ccc2oc(CCc3ccccc3)nc2c1)N1CC[C@H](O)C1 | 14.7

Source: PMC4336329 (PLoS ONE, 2015)
